# Measured values reported in PMC4336329 (PLoS ONE, 2015).
# Screen size: about 310,000 compounds; about 14,000 (4.5%) showed an effect of 50% or more. Effects have a minus sign here. This is one part of the list.
# Biological target: human ether-à-go-go-related gene (hERG) potassium channel (human, UniProt Q12809)
# Experiment: primary screen, population patch clamp on CHO cells stably expressing hERG
# 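Also: peak tail current of the secondary pulse compared with the same well before compound.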
# human ether-à-go-go-related gene (hERG) potassium channel, sequence (Q12809 whole entry, looked up): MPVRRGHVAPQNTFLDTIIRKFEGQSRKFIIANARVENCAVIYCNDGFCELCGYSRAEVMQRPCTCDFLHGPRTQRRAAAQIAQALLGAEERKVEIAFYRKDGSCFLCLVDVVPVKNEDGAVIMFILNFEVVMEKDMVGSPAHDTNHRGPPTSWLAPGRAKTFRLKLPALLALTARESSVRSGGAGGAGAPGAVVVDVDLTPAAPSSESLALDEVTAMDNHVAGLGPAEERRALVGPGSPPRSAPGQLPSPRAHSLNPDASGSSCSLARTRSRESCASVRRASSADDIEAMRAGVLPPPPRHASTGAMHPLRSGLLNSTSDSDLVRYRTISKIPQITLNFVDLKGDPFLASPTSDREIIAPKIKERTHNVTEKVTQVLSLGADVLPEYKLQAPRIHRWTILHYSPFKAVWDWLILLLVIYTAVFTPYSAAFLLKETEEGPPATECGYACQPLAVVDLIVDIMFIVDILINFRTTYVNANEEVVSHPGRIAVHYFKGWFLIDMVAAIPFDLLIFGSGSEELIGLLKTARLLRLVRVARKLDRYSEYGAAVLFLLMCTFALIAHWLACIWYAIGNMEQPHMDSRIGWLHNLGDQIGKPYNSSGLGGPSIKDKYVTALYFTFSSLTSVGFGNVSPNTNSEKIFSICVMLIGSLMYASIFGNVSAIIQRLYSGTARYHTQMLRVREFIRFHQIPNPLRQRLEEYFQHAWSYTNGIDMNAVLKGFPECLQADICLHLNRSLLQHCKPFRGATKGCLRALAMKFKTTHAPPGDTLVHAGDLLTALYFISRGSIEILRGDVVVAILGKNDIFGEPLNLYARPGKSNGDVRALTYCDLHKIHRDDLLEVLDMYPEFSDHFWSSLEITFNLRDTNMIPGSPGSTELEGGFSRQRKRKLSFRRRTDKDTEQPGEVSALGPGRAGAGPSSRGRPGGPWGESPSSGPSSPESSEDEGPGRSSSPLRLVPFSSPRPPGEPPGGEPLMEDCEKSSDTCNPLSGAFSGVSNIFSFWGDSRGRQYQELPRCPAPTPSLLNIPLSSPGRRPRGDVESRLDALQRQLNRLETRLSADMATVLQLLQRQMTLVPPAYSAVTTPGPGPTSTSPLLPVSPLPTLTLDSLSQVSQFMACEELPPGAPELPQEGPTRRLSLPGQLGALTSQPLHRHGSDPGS
row,SMILES,"hERG current change (%, negative = inhibition) at 10uM [%]"
1,Cc1cc(CNC(=O)c2cccnc2Cl)c2ccccc2n1,-2.82
2,C[N+](C)(C)CC(=O)Nc1ccc(Cl)cc1C(=O)c1ccccc1.[Br-],21.4
3,NC(=O)c1ccccc1N/C=C/C(=O)c1ccco1,10.5
4,NC(=O)CN(N=Nc1cccc([N+](=O)[O-])c1)c1cccc([N+](=O)[O-])c1,-12.8
5,Cc1ccccc1CCNCc1cc2cccc(C)c2[nH]c1=O,-52.2
6,COc1ccc(C(=O)O)cc1S(N)(=O)=O,11.3
7,CCOc1ccc(S(=O)(=O)Nc2cccc(N(C)S(C)(=O)=O)c2)cc1,4.37
8,O=C(CCN1C(=O)COc2ccccc21)NCCCN1CCCC1,10.3
9,COc1ccc2[nH]cc(C(=O)NCCc3ccccc3)c(=O)c2c1,9.85
10,O=C(Nc1ccncc1)C1CCN(S(=O)(=O)c2ccccc2C(F)(F)F)CC1,-15.2
11,CC1(C)CC(=O)C2=C(C1)OC(N)=C(C#N)C21C(=O)N(Cc2ccccc2Cl)c2ccccc21 (stereo not shown),15.3
12,O=C(NCc1ccccn1)C(=O)Nc1cc2c3c(c1)CC(=O)N3CCC2,8.15
13,CCOc1ccc(NC(=O)Nc2c(C)n(C)n(-c3ccccc3)c2=O)cc1,32
14,Cn1c(=O)c2cc3c(nc2n(C)c1=O)CC(c1ccccc1)CC3=O (stereo not shown),-3.1
15,COc1ccccc1NC(=O)COC(=O)c1cn(C)c2ccccc12,-2.15
16,O=C1C2C3CCC(C3)C2C(=O)N1CNc1ccccc1 (stereo not shown),7.37
17,Cc1ncc(CC(=O)n2cc(C(=O)c3cc(F)ccc3O)cn2)s1,-17.7
18,Cc1ccccc1NC(=O)c1cccc(NC(=O)c2c(C(=O)O)cccc2[N+](=O)[O-])c1,-4.29
19,Cc1ccc(-c2nc(Nc3ccc(N4CCOCC4)cc3)c3ccccc3n2)cc1,7.63
20,Nn1cnnc1SC1CCCCC1NS(=O)(=O)c1ccccc1 (stereo not shown),13.9
21,O=C(/C=C/c1cccc([N+](=O)[O-])c1)N(c1ccccn1)c1ccccn1,-35.8
22,COCCCn1c(C(=O)N2CCOCC2)cc2c(=O)n3cccc(C)c3nc21,-11.4

row,SMILES,"hERG current change (%, negative = inhibition) at 10uM [%]"
1,c1ccc(CSc2nnc(SCc3ccccn3)s2)nc1,-6.58
2,Cc1cccc(C)c1NC(=O)CSc1nnc(CCCCCNC(=O)OC(C)(C)C)o1,-17.8
3,COC(=O)c1cc(NS(=O)(=O)c2ccc(N3CCOCC3)c(NC(C)=O)c2)cc(C(=O)OC)c1,-1.8
4,COCC1CCN(C(=O)c2cc(COc3ccc(F)cc3F)on2)C1 (stereo not shown),-13.2
5,COc1cccc(CNc2ccc(N3CCCCC3)cc2)c1OC,2.2
6,Cc1ccc(C)c(NS(=O)(=O)c2c(C)nn(C)c2C)c1,11
7,COc1ccc(N2CC(C(=O)Nc3nnc(SCC(=O)NCC4CCCO4)s3)CC2=O)cc1 (stereo not shown),14.7
8,Oc1ccccc1/C=N/Nc1ccccc1,11.7
9,COC(=O)C1=C(C(=O)OC)[C@@H]2N(C)c3ccc(OC)cc3[C@@]23C[C@@H](C(=O)OC)N(C(=O)c2cccs2)C3=N1,-68.3
10,CCOC(=O)N1CCN(C(=O)CSc2ncnc3ccccc23)CC1,-24.4
11,C[C@]12C(=O)N(c3cccc(Cl)c3)C(=O)N1[C@H]1c3ccccc3OC[C@@H]1[C@H]2c1ccccc1,25.4
12,Cn1nc(C(C)(C)C)c([N+](=O)[O-])c1C(=O)NC1CCCCC1,-44.7
13,CCOc1cccc(C(=O)NC2CCCCC2)c1,-14
14,CCOCCCNCC(=O)Nc1ccc(OC(F)(F)F)cc1.Cl,-56.4
15,CSc1nc2nc(C)cc(-c3ccccc3)n2n1,-10.7
16,CCN1CCN(c2ncnc3scc(-c4ccc(C)c(C)c4)c23)CC1,-76.4
17,CC(=O)NCCNC(=O)CCNC(=O)c1ccc(Cl)cc1,4.19
18,COc1ccc(/C=N/OCc2ccccc2C#N)c(OC)c1,12.9
19,Cc1ccsc1C=C1C(=O)c2ccccc2C1=O,15.3
20,CS(=O)(=O)c1nc(S(=O)(=O)c2ccc(Cl)cc2)c(N2CCCCCC2)s1,8.54
21,Cc1ccc(NC(=S)Nc2cc(-c3ccccc3)[nH]n2)cc1Cl,20.5
22,O=C(N/N=C/c1ccc(O)c(O)c1)c1cc(-c2ccccc2)nc2ccccc12,10.1

row,SMILES,"hERG current change (%, negative = inhibition) at 10uM [%]"
1,COc1ccc(S(=O)(=O)N2CCc3ccccc32)cc1C(=O)O,-6.25
2,CCc1ccc(NC(=O)CCNC(=O)Cn2ccc3ccccc3c2=O)cc1,23
3,CC(=O)Nc1cccc(C(=O)OCC(=O)c2ccc(S(=O)(=O)N3CCCCC3)cc2)c1,-1.9
4,O=C(O)CCCC(=O)Nc1ccc2c(c1)oc1ccccc12,5.13
5,Cc1ccc(NC(=O)CSCC(=O)Nc2cc(Cl)ccc2N2CCN(C)CC2)cc1,-53.1
6,N=c1oc2c3c4c(cc2cc1C(=O)Nc1ccccc1)CCCN4CCC3,-29.6
7,O=c1cc(NC2CCCCC2)c2ccccc2o1,-7.56
8,CC(C)CCN1CCN(Cc2coc3ccccc3c2=O)CC1CCO (stereo not shown),-8.64
9,CCN1C(=O)c2ccc(C(=O)Nc3ccc(O)cc3C)cc2C1=O,23.5
10,CCCn1c(CCNC(=O)c2ccco2)nc2ccccc21,-10.1
11,O=C(COc1cccc(F)c1)Oc1ccc(C(=O)c2ccccc2)cc1,4.73
12,O=C1NCC(COc2ccc([N+](=O)[O-])cc2)O1 (stereo not shown),-78.4
13,N#Cc1ccc(C(=O)Nc2ccc(N3CCN(C(=O)c4ccco4)CC3)cc2)c(F)c1,-4.42
14,Cc1cccnc1NCC(O)COc1ccccc1 (stereo not shown),-37.5
15,COc1ccc(N2C(=O)C3C4C=CC(C4)C3C2=O)c(OC)c1 (stereo not shown),12.6
16,COC(=O)C1=C(c2c(C)noc2C)C[C@@H]2CC[C@H]1N2C(=O)NC1CC1,12.8
17,COc1ccc(S(=O)(=O)N2CCN(CC(=O)Nc3cc(Cl)ccc3Cl)CC2)cc1,-7.44
18,COc1ccccc1-c1cc(C(=O)N/N=C/C=C/c2ccccc2[N+](=O)[O-])c2ccccc2n1,8.13
19,COCCNC(=O)c1ccc2nc(Cc3ccc(OC)c(OC)c3)oc2c1,17.1
20,O=C(CC(NC(=O)C(F)(F)F)c1ccccc1)Nc1nnc(CCc2ccccc2)s1 (stereo not shown),5.81
21,COc1cc(S(=O)(=O)N(Cc2cccc(OC)c2OC)CC2CCCO2)ccc1-n1cnnn1 (stereo not shown),-21.8
22,O=C(COc1ncnc2c(Cl)cc(Cl)cc12)N1CCN(S(=O)(=O)c2ccccc2)CC1,16.6

row,SMILES,"hERG current change (%, negative = inhibition) at 10uM [%]"
1,Cc1ccc(NS(=O)(=O)c2ccc3c(c2)oc(=O)n3C)c(C)c1,18.6
2,COc1ccccc1N(CC(=O)Nc1ccc2c(c1)OCO2)S(=O)(=O)c1ccccc1,4.51
3,Cc1c(Cl)cccc1NC(=S)NC1CC1,1.29
4,Cc1ccc(C)c(S(=O)(=O)Nc2cc(C)on2)c1,14.8
5,CN(C)S(=O)(=O)c1ccc(C(=O)OCC(=O)Nc2ccc3c(c2)OCO3)cc1,-17.1
6,CCCCc1nc2cc(C(=O)N3CCN(c4nc(C)cnc4C)CC3)ccc2o1,-12.3
7,Br.CCCCCCCCCCCCn1ccc(=N)cc1,-60.2
8,COc1cccc(COC(=O)Cc2ccc(S(=O)(=O)N3CCOCC3)s2)c1OC,-5.44
9,CCOc1ccc2nc(SCC(=O)c3ccc(C)s3)sc2c1,11.1
10,O=C(CCc1ccccc1)NC(=S)Nc1ccc2c(c1)C(=O)OC2,0.437
11,Cc1ccc(CCC(=O)Nc2ccccc2C(=O)O)o1,1.48
12,CC(C)(C)c1ccc(OCc2nc(-c3ccccn3)no2)c(Br)c1,10.7
13,CC(C)CNC(=O)CSc1n[nH]c(=O)n1CCc1ccccc1,22.1
14,CC(C)CN(C(=O)Cn1ccccc1=O)C1CCS(=O)(=O)C1 (stereo not shown),8.22
15,CC1(C(=O)O)CCC(C(=O)Nc2ccc(F)cc2)C1(C)C (stereo not shown),7.21
16,c1ccc(CCc2nn3c(Cn4cnc5ccccc54)nnc3s2)cc1,-19.3
17,O=c1[nH]c(C2CCN(S(=O)(=O)c3ccccc3F)CC2)nc2c1nnn2Cc1ccc(F)cc1,-3.27
18,Cc1cccc(CNC(=O)c2cc(S(=O)(=O)N3CCOCC3)cn2C)c1,10.1
19,Cc1ccc(C(=O)NCC2CCCO2)cc1N1CCCC1=O (stereo not shown),6.65
20,CCC(Cc1ccccc1)NS(=O)(=O)c1c(C)nc2sccn2c1=O (stereo not shown),-9.21
21,COC(=O)/C=C1\S/C(=N/N=C/c2ccccc2)NC1=O,0.947
22,COc1ccc(C(=O)OCC(=O)NC2CC2)cc1OC,0.962
